Experimental data as given in PubChem BioAssay AID651820 (National Center for Advancing Translational Sciences (NCATS), 2012).
“And” between values parts separate entries of the source, which are not always exact repeats. Identical values can stand only once. About 12,000 (3.5%) of roughly 340,000 compounds were called active. This list was built around the results that the source calls inconclusive (neither active nor inactive); the mix of calls is not that of the screen. Calls come from the whole dose curve; as a rule, active = well fitted inhibition curve with a large enough effect; inconclusive = small, poorly fitted or top-dose-only effect, or another doubt; inactive = no such curve, though single readings can be large or run the other way. A potency beside an inconclusive call is a rough fit, not a confirmed value.
% is set by controls: 0 for no effect and ±100 for the full control effect; potency is the fitted concentration of half-maximal effect; tags give direction and shape of the fitted curve.

Experiment: qHTS Assay for Inhibitors of Hepatitis C Virus (HCV)
Details: Huh7.5.1 HCVcc-Cre (HCVcc is cell-culture hepatitis C virus) infection, luciferase reporter, 44 h; activity change, negative = inhibition: at 41.8 µM (top of the series) unless noted
Method in brief: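 After 44 h co-culture of compound, cells and HCVcc-Cre (~0.5 moi), substrate is added for 15 min at room temperature and luciferase measured over 15 sec. Cells were seeded at 1,000/well and pre-cultured 4 h.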
With O=C(Nc1ccccc1Oc1ccccc1)c1cc([N+](=O)[O-])ccc1Cl the Potency was inconclusive: 1.41 µM [inhibitor, full curve, poor fit].
For O=C(NCc1ccc(F)cc1)C1CCCN(c2nc3ccsc3c(=O)s2)C1 (stereo unspecified), the “activity change, negative = inhibition” value was inactive: 1.67%.
With NCCCNc1nc(N)c([N+](=O)[O-])c(NC2CCCCC2)n1 the Potency was active: 12.6 µM.
With O=[N+]([O-])c1ccc(N2CCCC2)cc1N/N=C1\CN2CCC1CC2 the Potency was inconclusive: 7.94 µM [inhibitor, partial curve].
For O=C(COC(=O)c1cccs1)NC12CC3CC(CC(C3)C1)C2, the “activity change, negative = inhibition” value was inactive: -5.48%.
In the case of CN(C)C1=NC[C@H](Cc2ccccc2)N1CCCCc1ccccc1, the Potency is reported as inconclusive: 25.1 µM [inhibitor, partial curve].
With Cc1ccc(C2CC(=O)C=C(NCc3ccccc3)C2)cc1 (stereo unspecified) the “activity change, negative = inhibition” value was inactive: -22.5%.
With COc1ccc(CCNC(=S)NC(=O)c2cccc([N+](=O)[O-])c2)cc1OC the Potency was inconclusive: 31.6 µM [inhibitor, single point].
For CCOC(=O)c1ccc(NC(=O)Nc2ccc3c(c2)OCCO3)cc1, the Potency was inconclusive: 10 µM [inhibitor, partial curve].
For CC(=O)N1CCN(C(=O)COc2ccc3oc4c(c3c2)CCCC4)CC1, the Potency was inconclusive: 5.01 µM [inhibitor, single point].
With Cc1cc(=O)oc2cc(OCC(=O)Nc3c(C)n(C)n(-c4ccccc4)c3=O)c(Cl)cc12 the Potency was inconclusive: 31.6 µM [inhibitor, single point].
For Cc1ccccc1NC(=O)C(Cl)=C(Cl)Cl, the Potency was inconclusive: 31.6 µM [inhibitor, single point].
With O=C(CSc1nc2nn(-c3ccccc3)c(=O)c-2c2n1CCCCC2)c1ccc(O)c(O)c1 the Potency was inconclusive: 31.6 µM [inhibitor, single point].
For CC(C)Oc1ccc(C(=O)/C(=C\c2cccs2)c2nc3ccccc3o2)cc1, the activity change, negative = inhibition was inconclusive: -71.5% [inhibitor].
With O=S(=O)(c1ccccc1)N1CCN(c2ncnc3scc(-c4ccccc4)c23)CC1 the Potency was inconclusive: 31.6 µM [inhibitor, single point].
In the case of Cn1c(Nc2cccc(Cl)c2)nc2ccccc21, the “activity change, negative = inhibition” value is reported as inactive: -15.3%.
For Cn1c(SCC(=O)c2ccc(-c3ccccc3)cc2)nnc1-c1ccco1, the “activity change, negative = inhibition” value was inactive: -12.6%.
For CN(CCc1ccccc1)C(=O)c1ccc(NC(=O)Cc2ccc(NC(=O)C3CCN(C(=O)C4CCCC4)CC3)cc2)cc1, the activity change, negative = inhibition was inactive: 18.2% [at 8.37 µM].
For O=C1CC(/C=C/c2ccc(Cl)cc2)=Nc2ccccc2N1, the Potency was inconclusive: 6.31 µM [inhibitor, partial curve].
With COc1cccc(CN(CC(=O)NCc2ccco2)C(=O)CNS(=O)(=O)c2ccccc2)c1 the “activity change, negative = inhibition” value was inactive: 12.8%.
In the case of COc1ccc(C(=O)n2cc(C(=O)c3cc(C)ccc3O)cn2)cc1OC, the Potency is reported as inconclusive: 11.2 µM [inhibitor, single point].
With CCN(CC(=O)NCc1cccs1)C(=O)c1cccc(S(=O)(=O)Nc2ccc(OC)cc2)c1 the Potency was inconclusive: 1.58 µM [inhibitor, partial curve].
For CCOc1cc(N2CCOCC2)c(OCC)cc1NCC(=O)N1CCN(Cc2ccccc2)CC1, the Potency was inconclusive: 11.2 µM [inhibitor, partial curve].
In the case of COc1ccc(CNS(=O)(=O)c2ccc(C3CNC(=O)C3)cc2)cc1 (stereo unspecified), the Potency is reported as active: 3.16 µM.
With Cc1cccc(NC(=O)CSc2cccc3cccnc23)c1 the “activity change, negative = inhibition” value was inactive: 6.61%.
In the case of O=[N+]([O-])c1ccccc1-c1cc(-c2ccccc2)cc(-c2ccccc2)[n+]1Cc1ccccc1Cl, the Potency is reported as active: 3.55 µM.
In the case of NS(=O)(=O)c1ccc(NC(=O)/C(=C/c2ccncc2)NC(=O)c2ccccc2)cc1, the Potency is reported as inconclusive: 11.2 µM [inhibitor, single point].
In the case of CN1CCN(C2=C(Cl)C(=O)N(C3CCCCC3)C2=O)CC1, the Potency is reported as inconclusive: 22.4 µM [inhibitor, single point].
In the case of O=C(Nc1cc(-c2ccccc2)cs1)c1ccco1, the Potency is reported as inconclusive: 15.8 µM [inhibitor, single point].
For CC(=O)c1cccc(CN2CCCCC2C(=O)Nc2ccc(Oc3ccccc3)nc2)c1 (stereo unspecified), the Potency was inconclusive: 1.58 µM [inhibitor, partial curve, poor fit].
With COc1cccc(/C=C2/Sc3ccc(C(=O)NCCN4CCCC4)cc3NC2=O)c1 the Potency was inconclusive: 2.82 µM [inhibitor, partial curve].
With NC(=O)c1ccccc1NC(=O)/C=C/c1ccc(Cl)cc1 the “activity change, negative = inhibition” value was inactive: -21.8%.
In the case of CCOC(=O)Nc1ccc2c(c1)N(C(=O)CN)c1ccccc1CC2, the Potency is reported as inconclusive: 22.4 µM [inhibitor, single point].
With Cc1ccc(NC(=O)CSCc2cc(=O)n3nc(C4CC4)sc3n2)cc1 the “activity change, negative = inhibition” value was inactive: 11.3%.
For CN(C)CC(O)COC(c1ccccc1)c1ccccc1 (stereo unspecified), the “activity change, negative = inhibition” value was inactive: -24.4%.
With COc1cc(/C=N/NC(=O)c2cccnc2)ccc1OC(=O)c1ccc([N+](=O)[O-])cc1 the “activity change, negative = inhibition” value was inactive: 2.18%.
For NS(=O)(=O)c1ccc(NC(=S)Nc2cc(Cl)c(Cl)cc2Cl)cc1, the “activity change, negative = inhibition” value was inactive: 13.4%.
For O=C1/C(=C/c2ccccc2)CCc2ccc(Cl)nc21, the Potency was inconclusive: 31.6 µM [inhibitor, single point].
For COc1cc(NC(=O)CSCc2cnn(-c3ccccc3)c2-n2cccc2)cc(OC)c1, the Potency was inconclusive: 11.2 µM [inhibitor, partial curve].
In the case of COCCN(C(=S)Nc1cccc(OC)c1)C(C)c1cccs1 (stereo unspecified), the “activity change, negative = inhibition” value is reported as inactive: 8.23%.
In the case of COc1ccc(-c2cc(C(F)(F)F)n3nc(C(=O)Nc4c(C)n(C)n(-c5ccccc5)c4=O)c(Cl)c3n2)cc1, the Potency is reported as inconclusive: 7.08 µM [inhibitor, partial curve].
In the case of CCCn1c(C(C)Nc2nc(-c3cc(Cl)c(N)c(Cl)c3)cs2)nc2cc(Cl)c(N3CCCCC3)cc21 (stereo unspecified), the “activity change, negative = inhibition” value is reported as inactive: -16.2%.
In the case of CCN1CN(Cc2ccco2)CNC1=S, the “activity change, negative = inhibition” value is reported as inactive: -3.17%.
In the case of O=C(Nc1ccc(F)c(F)c1)C1CCN(S(=O)(=O)c2cccs2)CC1, the Potency is reported as inconclusive: 2.51 µM [inhibitor, full curve].
With COc1cccc(N(C(=O)c2csnn2)C(C(=O)NC2CCCC2)c2ccccc2)c1 (stereo unspecified) the Potency was inconclusive: 11.2 µM [inhibitor, single point].
In the case of COc1ccc(C(C(=O)NC2CCCC2)N(C(=O)c2ccco2)c2ccccc2C(C)=O)cc1OC (stereo unspecified), the “activity change, negative = inhibition” value is reported as inactive: 4.04%.
With Cc1ccc(S(=O)(=O)N(CCCO)CC(O)CON=C2c3ccccc3-c3ccccc32)cc1 (stereo unspecified) the Potency was active: 10 µM.
With CC(O)/C=C/c1cccc[n+]1C (stereo unspecified) the “activity change, negative = inhibition” value was inactive: 12.5%.
For Cc1ccc(NS(=O)(=O)c2cccc(C(=O)Nc3cc(C)on3)c2)cc1, the Potency was inconclusive: 10 µM [inhibitor, partial curve].
For O=C(CN(C(=O)c1csnn1)c1ccccc1Cl)NCCc1ccccc1, the “activity change, negative = inhibition” value was inactive: -7.27%.
With CC(C)(/C=N/O)/[N+]([O-])=C/c1ccccc1 the “activity change, negative = inhibition” value was inactive: 8.54%.
For Cc1ccc2cc3cc(C(=O)N4CCN(C(=O)c5ccco5)CC4)sc3nc2c1, the Potency was inconclusive: 6.31 µM [inhibitor, partial curve].
For CCc1ccc(OCC(=O)N/N=C(\C)c2ccc3c(c2)OCCO3)cc1, the “activity change, negative = inhibition” value was inactive: -3.89%.
With Cc1cc(NCCCN(C)C)n2c(nc3ccccc32)c1C#N the Potency was inconclusive: 2 µM [inhibitor, full curve, poor fit].
In the case of COc1ccc(N(CC(=O)NCc2ccc(C)cc2)S(=O)(=O)c2c(C)noc2C)cc1, the “activity change, negative = inhibition” value is reported as inactive: 15.8%.
For NC(=O)c1ccc(NCCc2ccccc2)c([N+](=O)[O-])c1, the Potency was inconclusive: 22.4 µM [inhibitor, single point].
With CCOc1ccccc1NC(=O)c1cccc2c1C(=O)N(C1CCCCC1)C2 the Potency was inconclusive: 11.2 µM [inhibitor, single point].
For COc1ccc(CC(=O)N(CCC2=CCCCC2)c2c(N)n(Cc3ccccc3)c(=O)[nH]c2=O)cc1OC, the Potency was inconclusive: 15.8 µM [inhibitor, single point].
In the case of CCc1nc(SCC(=O)N2c3ccccc3CC2C)c2c(C)c(C)sc2n1 (stereo unspecified), the Potency is reported as active: 12.6 µM.
With O=C(/C=C\Nc1ccc(S(=O)(=O)Nc2ncccn2)cc1)c1ccccc1 the “activity change, negative = inhibition” value was inactive: -16%.
For Cc1c(NC(=O)c2ccc(CN3CCc4ccccc4C3)cc2)c(=O)n(-c2ccccc2)n1C, the Potency was inconclusive: 11.2 µM [inhibitor, single point].
In the case of O=C(COc1cccc(NC(=O)c2ccccc2)c1)c1ccccc1, the “activity change, negative = inhibition” value is reported as inactive: -5.29%.
With Cc1[nH]c(-c2ccc(F)cc2)cc1C(=O)N1CCN(c2ccccc2)CC1 the Potency was inconclusive: 31.6 µM [inhibitor, single point].
With Cc1ccc(C)c(S(=O)(=O)N2CCCCC2CCNC(=O)C(=O)NCc2ccco2)c1 (stereo unspecified) the Potency was active: 11.2 µM.
In the case of CCOc1ccccc1NC1=C(OC)C(=O)C(Nc2ccccc2OCC)=C(OC)C1=O, the Potency is reported as inconclusive: 31.6 µM [inhibitor, single point].
For Cc1nnc(N/N=C/c2c(Cl)cccc2Cl)n1N, the Potency was inconclusive: 5.01 µM [inhibitor, single point].
With CSc1ccc(CNC(=O)CCn2ccc3cc(S(=O)(=O)N4CCCC4)ccc32)cc1 the Potency was inconclusive: 12.6 µM [inhibitor, single point].
In the case of Cc1occc1-c1nnc(SCC(=O)c2cc3ccccc3oc2=O)o1, the Potency is reported as inconclusive: 31.6 µM [inhibitor, single point].
For Cc1[nH]nc(N=CC2=C(O)CC(c3ccco3)CC2=O)c1-c1ccccc1 (stereo unspecified), the Potency was “inactive and inconclusive: 5.01 µM [inhibitor, single point]”.
With CCOc1ccc(CCNS(=O)(=O)c2ccc(-c3ccc(=O)[nH]n3)o2)cc1OCC the “activity change, negative = inhibition” value was inactive: 0.288%.
With O=C(CCNC(=O)c1ccccc1Cl)Nc1nnc(C2CC2)s1 the Potency was inconclusive: 31.6 µM [inhibitor, single point].
